Source: PubChem BioAssay AID651820 (National Center for Advancing Translational Sciences (NCATS), 2012)
The campaign covered roughly 340,000 compounds. About 12,000 (3.5%) were called active. Inconclusive means that the source gave no clear call. Such entries were picked first, then a sample of the others. Calls come from the whole dose curve; as a rule, active = well fitted inhibition curve with a large enough effect; inconclusive = small, poorly fitted or top-dose-only effect, or another doubt; inactive = no such curve, though single readings can be large or run the other way. No potency is given beside an inconclusive call; the fits are too rough.

Assay: qHTS Assay for Inhibitors of Hepatitis C Virus (HCV)
Details: Huh7.5.1 HCVcc-Cre (HCVcc is cell-culture hepatitis C virus) infection, luciferase reporter, 44 h; activity change, negative = inhibition: at 41.8 µM (top of the series) unless noted
Summary of the method: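 HCVcc-Cre virus at an moi near 0.5 was added right after compound to cells cultured 4 h from seeding (1,000 cells/well). Luciferase activity was determined 44 h later, 15 min after substrate addition at RT.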
% is set by controls: 0 for no effect and ±100 for the full control effect; potency is the fitted concentration of half-maximal effect; tags give direction and shape of the fitted curve.

SMILES | Potency | activity change, negative = inhibition
O=C1c2ccccc2C(Nc2ccccc2)N1Cc1ccc2c(c1)OCO2 (centres undefined) | inconclusive [inhibitor, single point] | 
Cc1sc(N)nc1-c1ccc(Oc2ccccc2)cc1 | active: 14.1 µM | 
Cc1ccc(Cc2nnc3n(-c4ccccc4)nc(C(=O)c4ccccc4)n3c2=O)cc1 | inconclusive [inhibitor, partial curve] | 
COC(=O)c1[nH]c2ccc(C)cc2c1NS(=O)(=O)c1ccc(F)c(C)c1 | inconclusive [inhibitor, single point] | 
COc1ccc(CNC(=S)Nc2cc(C)ccc2C)cc1 | inconclusive [inhibitor, full curve] | 
Cc1ccc(C2NC(=O)c3ccccc3N2)c(C)c1 (centres undefined) | inconclusive [inhibitor, full curve, poor fit] | 
COc1ccc(/C=C/C(=O)c2cc(Br)ccc2O)cc1OC | inconclusive [inhibitor, single point] | 
O=C(NC1CCN(Cc2ccc(Cl)cc2)CC1)c1cn(-c2ccccc2)nc1-c1cccnc1 | active: 11.2 µM | 
CNC(=S)NNC(=O)c1cccs1 | inactive | 
Cc1cc(Cl)ccc1NC(=O)COC(=O)c1cc([N+](=O)[O-])ccc1N1CCOCC1 | active: 2.51 µM | 
Cc1ccc(C)c(NS(=O)(=O)c2ccc(-c3cnc(C4CC4)o3)cc2)c1 | inconclusive [inhibitor, single point] | 
O=C(CC1S/C(=N/N=C2CCCCCC2)NC1=O)Nc1ccccc1C(F)(F)F (centres undefined) | inactive | 
CC(C)Cn1c(SCC(=O)N2CCN(S(=O)(=O)c3ccccc3)CC2)nc2ccccc21 | inconclusive [inhibitor, single point] | 
COc1ccc(/C=N/n2cnc3c([nH]c4ccc(C)cc43)c2=O)cc1CN1CCCC1 | inconclusive [inhibitor, single point] | 
O=C(CN1CCN(c2nc(-c3ccccc3)cs2)CC1)Nc1ccc2c(c1)OCO2 | inconclusive [inhibitor, single point] | 
C/C(=N\NC(=O)c1cccc(Cl)c1)C1C(=O)c2ccccc2C1=O | inconclusive [inhibitor, single point] | 
Cc1ccc(Oc2nc(-c3cccnc3)nc3ccccc23)c([N+](=O)[O-])n1 | inconclusive [inhibitor, single point] | 
O=C(CN1CCN(c2ccc(Cl)cc2)CC1)Nc1ccc(F)cc1 | inconclusive [inhibitor, partial curve] | 
O=C(CSc1nc2ccccc2c(=O)n1-c1ccccc1F)Nc1ccc2c(c1)CCC2 | inconclusive [inhibitor, partial curve, poor fit] | 
CCOC(=O)c1c(NC(=O)C2CCCO2)sc(C)c1C (centres undefined) | inconclusive [inhibitor, partial curve] | 
O=c1c2ccccc2nc(SCc2nc3ccccc3s2)n1Cc1ccco1 | inconclusive [inhibitor, partial curve] | 
O=C(NN=Cc1ccccc1Cl)c1ccc(-n2cnnn2)cc1 | inconclusive [inhibitor, partial curve] | 
Cn1cccc1C1C=C(c2ccc(C(C)(C)C)cc2)Nc2ncnn21 (centres undefined) | inconclusive [inhibitor, single point] | 

SMILES | Potency | activity change, negative = inhibition
O=S(=O)(c1ccc(F)cc1)n1ccc(-c2cccc(OCc3c(F)cccc3Cl)c2)n1 | inconclusive [inhibitor, partial curve] | 
Cc1cccc(CC(Cc2nc3ccccc3[nH]2)c2nc3ccccc3[nH]2)c1 (centres undefined) | inconclusive [inhibitor, single point] | 
O=c1c2ccccc2nc(/C=C/c2ccc([N+](=O)[O-])cc2)n1CCCO | inactive | 
CCOc1ccc(N2C(=O)c3cccnc3C2Nc2ccc(Cl)cc2)cc1 (centres undefined) | inconclusive [inhibitor, single point] | 
CCN(CC)CCCNc1oc(/C=C/c2ccccc2)nc1C#N | inconclusive [inhibitor, partial curve] | 
Fc1ccc(CNc2nc(-c3ccco3)cc(C(F)(F)F)n2)cc1 | inconclusive [inhibitor, single point] | 
CC(C)Cc1cc(C(=O)N(C)C2CCCN(Cc3ccccc3F)C2)n(C)n1 (centres undefined) | inactive | 
N#CCSc1nnc(-c2ccc3c(c2)OCO3)o1 | inactive | 
Cc1cccc(N2CCN(C(=O)c3ccc4ncsc4c3)CC2)c1C | inconclusive [inhibitor, full curve] | 
CCc1cc2c(=O)c(-c3nc4ccccc4n3C)c(C(C)C)oc2c(CN2CCN(C)CC2)c1O | inconclusive [inhibitor, partial curve] | 
Cc1ccc(/C=C/C(=O)NCCCN2CCN(CCCNC(=O)/C=C/c3ccc(C)cc3)CC2)cc1 | inconclusive [inhibitor, full curve, poor fit] | 
CC(C)c1ccc(CNc2cc(N3CCCC3)ccc2[N+](=O)[O-])cc1 | inconclusive [inhibitor, partial curve] | 
Cc1ccc(-c2csc(NC(=O)c3cccs3)n2)cc1 | inconclusive [inhibitor, single point] | 
CC1Cc2ccccc2N1S(=O)(=O)c1cccc2nsnc12 (centres undefined) | inconclusive [inhibitor, single point] | 
CCc1ccc(OCC(=O)NCC(c2ccc(Cl)cc2)N2CCCCC2)cc1 (centres undefined) | inconclusive [inhibitor, single point] | 
Cc1cc(N2CCCCCC2)nc(-c2ccccc2O)n1 | active: 12.6 µM | 
CCCCN1CC(=O)N2[C@H]3c4cc(Cl)ccc4OC[C@@H]3[C@H](C(=O)OCC)[C@]2(C)C1=O | inactive | 
COc1ccc(-c2onc(C)c2-c2ccccc2)c(O)c1 | inconclusive [inhibitor, partial curve] | 
COc1ccc(OCC(=O)N2CCN(c3cccc(C(F)(F)F)c3)CC2)cc1 | inactive | 
O=C(Nc1ccccc1)C(=O)c1cn(CC(=O)N2CCCCC2)c2ccccc12 | inactive | 
O=C1NC(=O)N(Cc2ccccc2Cl)C(=O)/C1=C/N1CCOCC1 | inactive | 
COc1ccc(NC(=O)c2ccc(-n3nc(C)cc3C)cc2)cc1OC | active: 7.08 µM | 
CCOc1cc2[nH]c(=S)n(CCCOC)c(=O)c2cc1OCC | inconclusive [inhibitor, full curve] | 

SMILES | Potency | activity change, negative = inhibition
CCc1cc(C(=O)N2CCN(c3ccccc3OC)CC2)sc1C | inconclusive [inhibitor, single point] | 
Cc1sc(NC(=O)c2cccnc2)nc1-c1ccccc1 | inconclusive [inhibitor, single point] | 
COc1cc(OC)cc(-c2nnc(SCc3c(F)cccc3Cl)o2)c1 | inconclusive [inhibitor, full curve] | 
CCOC(=O)c1cnc2ccccc2c1NCCO | inactive | 
CCCCCCSc1cc(-c2nc3ccc(C)cn3c2NCc2ccccc2)ccc1OC |  | inactive: -15.6% [at 8.37 µM]
Cc1cccc(C)c1N1CCN(C(=O)Cn2cncn2)CC1 | inactive | 
CCCCN(CC(=O)NCc1ccc(Cl)cc1)S(=O)(=O)c1ccc2c(c1)OCCO2 | inconclusive [inhibitor, single point] | 
CCOC(=O)C1CCCN(CC(=O)Nc2c(C(=O)OC)[nH]c3ccc(C)cc23)C1 (centres undefined) | inconclusive [inhibitor, partial curve] | 
O=C(Nc1ccc(S(=O)(=O)C(F)F)cc1)c1cccc(S(=O)(=O)N2CCOCC2)c1 | inconclusive [inhibitor, single point] | 
Cc1ccc(Cn2c(O)c(N=NC(=S)Nc3ccccc3F)c3cc(S(=O)(=O)N4CCOCC4)ccc32)cc1 | inconclusive [inhibitor, partial curve] | 
CC(C)(C)c1ccc(/C=N/NC(=O)CN2CCS(=O)(=O)CC2)cc1 | inactive | 
COc1ccc(NC(=O)CSc2nc3c(c(=O)n2-c2ccc(F)cc2)SCC3)c(OC)c1 | inconclusive [inhibitor, single point] | 
CN(C)c1cc[n+](CCC(=O)Nc2cccc([N+](=O)[O-])c2N)cc1 | inconclusive [inhibitor, partial curve, poor fit] | 
O=C(CSc1ccc(-c2ccccn2)nn1)N1CCc2ccccc21 | inconclusive [inhibitor, partial curve] | 
C[C@H](CO)N1C[C@H](C)[C@@H](CN(C)Cc2ccc(Oc3ccccc3)cc2)Oc2c(NS(=O)(=O)c3cn(C)cn3)cccc2C1=O | inconclusive [inhibitor, single point] | 
CCOc1ccccc1CNS(=O)(=O)c1cc(-c2cc(C)no2)ccc1C | inconclusive [inhibitor, single point] | 
CCc1ccc(NC(=O)CSCCO)cc1 | inactive | 
COC(=O)c1c(NC(=O)c2ccc([N+](=O)[O-])o2)sc2c1CCN(C(C)C)C2 | active: 2.82 µM | 
CC(=O)NC1=C(NC2CCS(=O)(=O)C2)C(=O)c2ccccc2C1=O (centres undefined) | active: 7.08 µM | 
COc1ccccc1C(=O)NCCC(=O)NC1CCCC(C)C1C (centres undefined) | inactive | 
CN(C)c1nc(-c2ccccc2)nc(-c2ccc(Cl)cc2)c1C#N | inactive | 
COc1cccc(-c2nnn(CC(=O)N3CCCCC3)n2)c1 | inactive | 
O=C(CN1C(=O)c2cccc3cccc(c23)C1=O)N1CCN(Cc2ccc3c(c2)OCO3)CC1 | active: 22.4 µM | 
